Measurements published in PubChem BioAssay AID1345082 (National Center for Advancing Translational Sciences (NCATS), 2018).
The campaign covered roughly 94,000 compounds. About 4,000 (4.3%) were called active. This list was built around the results that the source calls inconclusive (neither active nor inactive); the mix of calls is not that of the screen. Calls come from the whole dose curve; as a rule, active = well fitted inhibition curve with a large enough effect; inconclusive = small, poorly fitted or top-dose-only effect; inactive = no such curve, though single readings can be large or run the other way. Where the call is inconclusive, the potency comes from a doubtful curve fit.

Experiment: Cytotoxic Profiling in NIH 3T3 Cell Line of Diverse Libraries Using Quantitative High-Throughput Screening; note: nearly all actives have a fitted effect of over 55% in size
Conditions: NIH 3T3 viability, CellTiter-Glo ATP luminescence, 48-72 h; series mostly up to 96.7 µM
Summary of the method: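 Cytotoxicity is measured as loss of cellular ATP: NIH 3T3 cells (400/well) are exposed to compound for 48 or 72 hr at 37 °C, then CellTiter-Glo luminescence is imaged after 10 min at room temperature.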
Potency is the fitted concentration of half-maximal effect; tags give direction and shape of the fitted curve.

Question: With `COC[C@@H]1CN(Cc2c(OC)cccc2OC)C[C@H]1c1ccncc1` as the compound, how does the Potency read?
Answer: inconclusive: 31.6 µM [inhibitor, partial curve, poor fit]

Question: With `O=C(c1ccco1)N1CCn2c(nnc2[C@@H]2C[C@@H](O)CN2Cc2ccccc2)C1` as the compound, how does the Potency read?
Answer: inactive

Question: Which Potency does the source give for `COC(=O)CN1C(=O)[C@@H]2C[C@@H](O)CN2C2(CNC2)C1=O` here?
Answer: inactive

Question: With `COc1ccc(CN2CCC3(CC2)OCCN(Cc2ccccc2F)C3=O)cc1O` as the compound, how does the Potency read?
Answer: inactive

Question: For `O=C(O)c1ccnc(-c2ccnc(NCCN3CCCCC3=O)n2)c1`, which Potency is on record?
Answer: inactive

Question: For `Cn1ncc2c(C(=O)NCc3cccs3)cc(-c3ccc(Cl)cc3Cl)nc21`, which Potency is on record?
Answer: inconclusive: 35.5 µM [inhibitor, partial curve]

Question: Which Potency does the source give for `CC(C)Cc1cc(CNc2nccc(-c3cc(C(=O)O)ccn3)n2)no1` here?
Answer: inactive

Question: For `CN1[C@@H](CCC(=O)NCc2cccnc2)CNC(=O)[C@@H]2[C@H]1CCN2Cc1ccc(O)cc1`, which Potency is on record?
Answer: inconclusive: 89.1 µM [inhibitor, partial curve, poor fit]

Question: Which Potency does the source give for `COc1cccc(-c2noc(CC3CCN(C(=O)c4cccc(Cl)c4)CC3)n2)c1` here?
Answer: inconclusive: 20 µM [inhibitor, partial curve]

Question: With `Cc1ccc(NC(=O)Cn2c(C)cc3nc4n(c(=O)c32)CCCCC4)cc1` as the compound, how does the Potency read?
Answer: inconclusive: 70.8 µM [inhibitor, partial curve, poor fit]

Question: For `O=C1CN(C(=O)OCc2ccccc2)CC(O)CN1CCc1ccccc1` (stereo unspecified), which Potency is on record?
Answer: inconclusive: 63.1 µM [inhibitor, partial curve, poor fit]

Question: For `O=C(Nc1ccc2ncnc(N3CCCCC3)c2c1)c1ccccc1Cl`, which Potency is on record?
Answer: inconclusive: 44.7 µM [inhibitor, partial curve, poor fit]

Question: Which Potency does the source give for `O=C(O)C[C@@H]1CCN(S(=O)(=O)c2cccs2)C[C@@H]1CC1=NCCc2ccccc21` here?
Answer: inactive

Question: With `Cn1nc2n(c1=O)CCC(NC(=O)c1cc(C3CC3)[nH]n1)CC2` (stereo unspecified) as the compound, how does the Potency read?
Answer: inactive

Question: For `O=C1CCN(CC(O)COCc2ccco2)c2ccsc2CN1Cc1ccccc1` (stereo unspecified), which Potency is on record?
Answer: inconclusive: 39.8 µM [inhibitor, partial curve]

Question: Which Potency does the source give for `CCc1nc(-c2c3n(c(=O)n(Cc4ccccc4C)c2=O)CCCC3)no1` here?
Answer: inconclusive: 70.8 µM [inhibitor, single point]

Question: With `COc1ccc(C(C)NC(=O)c2noc(-c3ccc4c(c3)OCO4)n2)cc1` (stereo unspecified) as the compound, how does the Potency read?
Answer: inconclusive: 28.2 µM [inhibitor, partial curve]

Question: With `O=C1N(c2ccccc2)c2ccccc2C12CCN(Cc1ccccc1)C2` (stereo unspecified) as the compound, how does the Potency read?
Answer: inconclusive: 50.1 µM [inhibitor, partial curve, poor fit]

Question: With `CC(CCc1ccccc1)NC(=O)c1ccc(Cn2ccn3nc4c(c3c2=O)CCCC4)cc1` (stereo unspecified) as the compound, how does the Potency read?
Answer: inconclusive: 28.2 µM [inhibitor, partial curve]

Question: Which Potency does the source give for `COc1ccc(/C=C/c2ccc3c(c2)C(=O)N2C[C@@H](NS(C)(=O)=O)C[C@H]2C(=O)N3)cc1` here?
Answer: inconclusive: 50.1 µM [inhibitor, partial curve, poor fit]

Question: For `COCCNC(=O)c1ccc(OC2CCN(Cc3ccc(C)s3)CC2)c(Cl)c1`, which Potency is on record?
Answer: inconclusive: 44.7 µM [inhibitor, partial curve, poor fit]

Question: For `COc1ccc(CN2CCOc3nc(-c4cccc(C#N)c4)ncc3C2=O)cc1`, which Potency is on record?
Answer: inconclusive: 89.1 µM [inhibitor, partial curve]

Question: With `COc1cccc(-c2ccc(CN3CCCC(N[S+](C)(=O)[O-])C3)cc2)c1` (stereo unspecified) as the compound, how does the Potency read?
Answer: inconclusive: 28.2 µM [inhibitor, full curve]

Question: Which Potency does the source give for `COc1ccc(CN2Cc3[nH]nc(-c4ccccc4)c3CC2=O)cc1` here?
Answer: inconclusive: 100 µM [inhibitor, partial curve, poor fit]

Question: For `COc1ccc(NC(=O)c2cccc3c2CCN3C(=O)c2ccc(F)cc2)c(OC)c1`, which Potency is on record?
Answer: inconclusive: 35.5 µM [inhibitor, partial curve]

Question: Which Potency does the source give for `O=C1C[C@@H]2CCN(C(=O)COc3ccccc3)C[C@@H]2CCN1Cc1ccc2c(c1)OCO2` here?
Answer: inconclusive: 44.7 µM [inhibitor, partial curve, poor fit]

Question: For `O=C(NCc1ccccc1F)[C@H]1CN(Cc2ccccc2)C[C@H]1C(=O)O`, which Potency is on record?
Answer: inconclusive: 79.4 µM [inhibitor, partial curve, poor fit]

Question: With `Cc1ccc(C(=O)N2CCC(n3cc(-c4nc(-c5ccccc5)no4)nn3)CC2)s1` as the compound, how does the Potency read?
Answer: inconclusive: 44.7 µM [inhibitor, partial curve, poor fit]

Question: Which Potency does the source give for `COc1ccc(CCC(=O)NC2CCc3nnc(C)n3CC2)cc1OC` (stereo unspecified) here?
Answer: inactive

Question: For `COc1cccc(N2CCN(C(=O)c3ccc4c(c3)N(C)C3CCCCCN3C4=O)CC2)c1` (stereo unspecified), which Potency is on record?
Answer: inactive

Question: Which Potency does the source give for `COC(=O)c1ccc2nc(C[C@@H]3C[C@@H](C(C)C)[C@H](CNC(=O)c4cnccn4)C=C3C)[nH]c2c1` here?
Answer: inconclusive: 50.1 µM [inhibitor, partial curve, poor fit]

Question: For `COCCN1CCC2(CCC1=O)CN(C(=O)NC(C)C)CCN2C` (stereo unspecified), which Potency is on record?
Answer: inactive

Question: Which Potency does the source give for `COc1ccc2nc(C[C@@H]3C[C@@H](C(C)C)[C@H](CNCc4ccccn4)C=C3C)[nH]c2c1` here?
Answer: inconclusive: 35.5 µM [inhibitor, partial curve, poor fit]

Question: With `CC(=O)N1CCCN(C(=O)c2ccc3nccn3c2)CC1` as the compound, how does the Potency read?
Answer: inactive

Question: Which Potency does the source give for `O=C(N[C@H]1CCN2C(=O)c3cc(-c4ccccc4F)ccc3NC(=O)[C@H]12)C1CCCC1` here?
Answer: inconclusive: 112 µM [inhibitor, partial curve]

Question: Which Potency does the source give for `Cc1ccc(C(=O)N2CCC(C(=O)N3CCC(c4nc5ncccc5[nH]4)C3)CC2)cc1` (stereo unspecified) here?
Answer: inactive

Question: For `CCC1=C(C(=O)OC)C(c2ccccc2)N2C(CC(=O)N3CCC(C)CC3)=CSC2=N1` (stereo unspecified), which Potency is on record?
Answer: inconclusive: 44.7 µM [inhibitor, partial curve, poor fit]

Question: Which Potency does the source give for `COc1ccc(NC(=O)N2CCC(N3CC4CC(C3)[C@H]3CCCC(=O)N3C4)CC2)cc1` (stereo partly specified) here?
Answer: inactive

Question: With `Cc1ccc(CNC(=O)N2CCC(Cc3ccc(C(=O)NC4CC4)cc3)CC2)cc1` as the compound, how does the Potency read?
Answer: inconclusive: 44.7 µM [inhibitor, partial curve, poor fit]

Question: With `COc1ccc(-c2noc(Nc3cc(OC)cc(OC)c3)n2)cc1` as the compound, how does the Potency read?
Answer: inconclusive: 39.8 µM [inhibitor, partial curve, poor fit]

Question: With `Cc1ccc(-c2cc3c(=O)n(CCNC(=O)c4ccco4)ccn3n2)c(C)c1` as the compound, how does the Potency read?
Answer: inconclusive: 44.7 µM [inhibitor, partial curve]

Question: With `CC(C)c1noc(C2CCCN(C(=O)CC3CCCCC3)CCC(=O)NCC2)n1` (stereo unspecified) as the compound, how does the Potency read?
Answer: inactive

Question: With `CCOC(=O)C1CCN(C(=O)c2ccc3nnc(-c4ccc([S+](C)(=O)[O-])cc4)n3c2)CC1` as the compound, how does the Potency read?
Answer: inactive

Question: With `N#Cc1ccc(CN2CCC[C@H]2c2nc(-c3ccnc(N4CCOCC4)c3)no2)cc1` as the compound, how does the Potency read?
Answer: inactive

Question: With `COc1cccc(CCC(=O)NC(C)C(=O)N2CCN(c3ccccn3)CC2)c1` (stereo unspecified) as the compound, how does the Potency read?
Answer: inconclusive: 70.8 µM [inhibitor, single point]

Question: With `O=C(NCCc1ccccc1)N1CCCC(c2nc(CCOc3ccc(F)cc3)no2)C1` (stereo unspecified) as the compound, how does the Potency read?
Answer: inconclusive: 50.1 µM [inhibitor, partial curve, poor fit]

Question: Which Potency does the source give for `CC1=C[C@@H](CNCc2cccnc2)[C@H](C(C)C)C[C@H]1Cc1nnc(-c2ccccc2)o1` here?
Answer: inconclusive: 89.1 µM [inhibitor, partial curve]

Question: With `COCCCNC(=O)CCCN1C(=O)COc2ccc(C(=O)COc3ccc(OC)cc3)cc21` as the compound, how does the Potency read?
Answer: inconclusive: 31.6 µM [inhibitor, partial curve]

Question: With `COCCNC(=O)c1cc(-c2ccccc2F)nc2c1cnn2C` as the compound, how does the Potency read?
Answer: inconclusive: 112 µM [inhibitor, single point]

Question: Which Potency does the source give for `CNC(=O)[C@H]1C[C@]2(CCCCNC2=O)N(C(=O)c2ccc3c(c2)OCCCO3)[C@H]1c1ccco1` here?
Answer: inconclusive: 79.4 µM [inhibitor, partial curve, poor fit]

Question: With `CCn1ccc(C(=O)N2CC(C(=O)N(C)C)C3(CCOCC3)C2)n1` (stereo unspecified) as the compound, how does the Potency read?
Answer: inactive

Question: With `CC1(C)[C@H](Cc2cc(-c3ccc(F)cc3)on2)C[C@@H]1NC1CCOCC1` as the compound, how does the Potency read?
Answer: inconclusive: 39.8 µM [inhibitor, full curve, poor fit]

Question: Which Potency does the source give for `CCOc1ccc(NC(=O)Cn2c(C)cc3nc4n(c(=O)c32)CCCC4)cc1` here?
Answer: inactive

Question: With `CCCc1cc(CN(C)C(=O)C2CC(=O)N(c3ccc(C(C)C)cc3)C2)[nH]n1` (stereo unspecified) as the compound, how does the Potency read?
Answer: inconclusive: 50.1 µM [inhibitor, partial curve, poor fit]

Question: Which Potency does the source give for `CC1(CCCCN2CCOCC2)COc2ccc(C(=O)NCc3ccc(F)cc3)cc2N1` (stereo unspecified) here?
Answer: inconclusive: 44.7 µM [inhibitor, partial curve, poor fit]

Question: Which Potency does the source give for `COc1ccc(CN2CCCC3(C2)C(=NC2CCCC2)NC(=O)N3c2cccnc2)cc1` (stereo unspecified) here?
Answer: active: 22.4 µM

Question: With `Cc1oc2ccn(Cc3cccc(F)c3)c(=O)c2c1C(=O)NCc1cccc(F)c1` as the compound, how does the Potency read?
Answer: inconclusive: 50.1 µM [inhibitor, partial curve, poor fit]

Question: Which Potency does the source give for `Cc1noc(C)c1-c1cc(-c2cccc(N[S+](C)(=O)[O-])c2)cn2cncc12` here?
Answer: inconclusive: 20 µM [inhibitor, full curve, poor fit]

Question: Which Potency does the source give for `COc1ccccc1-c1cc(NCc2ccncc2)c2onc(C)c2n1` here?
Answer: inconclusive: 56.2 µM [inhibitor, partial curve, poor fit]

Question: Which Potency does the source give for `CN(Cc1ccc(-c2ccccc2)cc1)C(=O)c1ccc(C(F)(F)F)cc1` here?
Answer: inconclusive: 50.1 µM [inhibitor, partial curve, poor fit]

Question: With `O=C(Nc1ccc([C@@H](O)[C@H]2COCC(=O)N2Cc2ccccc2)cc1)c1ccc(F)cc1` as the compound, how does the Potency read?
Answer: inconclusive: 89.1 µM [inhibitor, partial curve, poor fit]
